Laboratory results reported in PubChem BioAssay AID686978 (National Center for Advancing Translational Sciences (NCATS), 2013).
Hit rate of the full screen: of about 420,000 compounds, about 64,000 (15%) were called active. Inconclusive results, whose numbers are uncertain, are shown with a selection of clear calls. Calls follow the shape of the dose curve; as a rule, active = well fitted inhibition curve with a large enough effect; inconclusive = small, poorly fitted or top-dose-only effect; inactive = flat fitted curve, though single readings scatter. Potencies of inconclusive entries are left out as doubtful fits.

Assay: qHTS for Inhibitors of human tyrosyl-DNA phosphodiesterase 1 (TDP1): qHTS in cells in absence of CPT; also: nearly all actives have a fitted effect of over 55% in size
Details: DT40 Tdp1-/- hTDP1 cells, no CPT, ATP luminescence, 48 h; activity change, negative = growth inhibition: at 46.2 µM (top of the series) unless noted
Procedure, shortened: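 A cellular qHTS used chicken DT40 cells lacking endogenous Tdp1 but carrying stably transfected human TDP1. Compounds were applied without camptothecin, and cell growth kinetics were judged by ATP-dependent luminescence after ≥48 hr.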
% is scaled to controls: 0 for no effect and ±100 for the full control effect; potency is read from the fitted curve at half-maximal effect; tags tell the direction and shape of the fitted curve.

SMILES	activity change, negative = growth inhibition	Potency
COc1ccc(C2(c3ccc(OC)cc3)NC(=O)N(CC(=O)Nc3ccc(C(=O)N(C)C)cc3)C2=O)cc1	inactive: -7.68%	–
Cc1ccccc1NC(=O)c1c(C)nc(SCC(=O)OCc2ccccc2)c(C#N)c1-c1ccc(F)cc1	–	active: 14.6 µM
O=C(NCCCn1ccnc1)c1sc2cc([N+](=O)[O-])ccc2c1Cl	–	active: 16.4 µM
Cc1ccc(S(=O)(=O)N2C(c3ccccc3)CC(=O)C3CN(S(=O)(=O)c4ccc(Cl)cc4)C(c4ccccc4)CC32)cc1 (configuration not stated)	–	inconclusive [inhibitor, single point]
Cc1cc(C)n(S(=O)(=O)c2cccc([N+](=O)[O-])c2)n1	inactive: -14.9%	–
CC(C)CN(C(=O)CN1C(=O)NC2(CCc3ccccc32)C1=O)C1CCS(=O)(=O)C1 (configuration not stated)	inactive: 15.3%	–
NC(c1csc(Nc2cnccn2)n1)c1ccccc1Cl (configuration not stated)	–	inconclusive [inhibitor, single point]
Cc1ccc(C(=O)N2CCCCC2CCN2CCCCC2)cc1 (configuration not stated)	inactive: -3.05%	–
Cc1ccc(C)c(NC(=S)N2CCC(NC(=O)c3ccccc3)CC2)c1	–	inconclusive [inhibitor, full curve, poor fit]
NC(=O)[C@H]1CC2(CC(c3cccc(NC(=O)c4ccccc4)c3)=NO2)CN1C(=O)[C@H]1CCC(=O)N1 (some centres not stated)	–	inconclusive [inhibitor, single point]
COc1ccc(CCN(Cc2cc3cc(C)ccc3[nH]c2=O)C(=O)N2CCCC2)cc1OC	–	inconclusive [inhibitor, single point]
O=C(CCC1CCCN(C(=O)CCCc2ccccc2)C1)N1CCN(c2ccccn2)CC1 (configuration not stated)	–	inconclusive [inhibitor, single point]
c1ccc2c(c1)nc(Nc1ccc3c(c1)OCO3)c1nnnn12	–	active: 16.4 µM
O=[N+]([O-])CC(=Nc1ccc(Cl)cc1)N/N=C\c1oc(O)c2ccccc12	–	inconclusive [inhibitor, partial curve, poor fit]
CN(CCc1ccccc1)C(C(=O)Nc1ccc2c(c1)OCCO2)C1CC1 (configuration not stated)	inactive: -19.2%	–
C/C(=N\NC(=O)c1ccc(NS(=O)(=O)c2cccs2)cc1)c1ccccn1	–	inconclusive [inhibitor, single point]
CC(=O)Nc1ccc(NC(=O)COC(=O)CCNS(=O)(=O)c2c(Cl)cccc2Cl)cc1	inactive: -1.38%	–
CCOC(=O)c1c(NC(=O)CSc2cn(CC)c3ccccc23)sc2c1CCC2	–	inconclusive [inhibitor, single point]
O=C(NC(=S)Nc1c(Cl)ccc2nsnc12)c1ccco1	inactive: -15.5%	–

SMILES	activity change, negative = growth inhibition	Potency
COC(=O)c1ccc(NC(=O)CCCCCn2nnc3ccccc3c2=O)cc1	inactive: 0.485%	–
Cc1nnc(NC(=O)Nc2cccc(Cl)c2)s1	–	active: 13 µM
COc1ccccc1N1CCN(C(=O)c2ccc(-c3ccccc3)cc2)CC1	–	active: 13 µM
CC/C(=N\NC(=S)Nc1cc(C)ccc1C)c1ccc(OC(F)F)cc1	–	active: 16.4 µM
Cc1cccc(NC(=O)Cn2c(=O)c3cccn3c3ccccc32)c1C	inactive: -6%	–
CCS(=O)(=O)c1cccc(C(=O)Nc2ccc(-c3nc4ccccc4s3)c(O)c2)c1	–	inconclusive [inhibitor, partial curve]
CSc1cccc(NC(=S)N2CCC(N(C)C3CCCCC3)CC2)c1	–	inconclusive [inhibitor, single point]
Cc1ccc(O)cc1	–	inactive
OCCN1CCN(c2nc(-c3ccccc3)c3cc(Br)ccc3n2)CC1	–	active: 9.2 µM
CCN(CC)c1ccc(NC(=O)CN2CCN(c3ccccn3)CC2)cc1	inactive: 4.15%	–
CCOC(=O)Cn1cc(/C=N/NC(=O)c2cc3ccccc3o2)c2ccccc21	–	inconclusive [inhibitor, single point]
COc1ccc(-c2csc(-c3c(N)c(C(=O)c4ccccc4)n4ccccc34)n2)cc1OC	–	active: 2.31 µM
Cc1cc(C)nc(/N=c2/ssnc2Cl)c1	–	active: 9.2 µM
CCSc1nnc(NC(=O)C2Cc3ccccc3CN2S(=O)(=O)CC)s1 (configuration not stated)	–	active: 16.4 µM
O=C1c2nccnc2C(=O)N1c1ccc(C(F)(F)F)cc1	inactive: -0.647%	–
CC(=O)c1ccc(N2CCN(C(=S)Nc3ccc(Cl)c(Cl)c3)CC2)cc1	inactive: -26.7%	–
N#CC1=C(N)N(c2ccccc2Sc2ccccc2)C(=O)C1	inactive: -1.49%	–
Cc1cc(N2CCOCC2)nc2ccc(NC(=O)CCC(=O)N3CCC(C)CC3)cc12	–	inconclusive [inhibitor, single point]
